Experimental data from PubChem BioAssay AID2676 (National Center for Advancing Translational Sciences (NCATS), 2010).
In all, about 370,000 compounds went through this assay and about 1,100 (0.3%) were called active. The inconclusive results got no clear call from the source; some entries with a clear call stand among them for comparison. Calls come from the whole dose curve; as a rule, active = well fitted activation curve with a large enough effect; inconclusive = small, poorly fitted or top-dose-only effect; inactive = flat fitted curve, though single readings scatter. Where the call is inconclusive, the potency comes from a doubtful curve fit.

Molecular target: Relaxin receptor 1 (Homo sapiens) (UniProt Q9HBX9)
Assay: qHTS Assay for Agonists of the Relaxin Receptor RXFP1; note: nearly all actives have a fitted effect of over 60% in size
Conditions: HEK293T-RXFP1 cAMP TR-FRET, 30 min; series mostly up to 57.5 µM
In short: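 cAMP rise read by TR-FRET after 30 min, 37C compound exposure (up to 58 uM) in RXFP1-transfected HEK293 cells with Ro 20174 present. EC50 from Hill-equation fits, with 29 nM porcine relaxin as 100% and buffer as basal.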
Potency is the fitted concentration of half-maximal effect; tags give direction and shape of the fitted curve.

UniProt Q9HBX9, sequence (Q9HBX9 whole entry, looked up): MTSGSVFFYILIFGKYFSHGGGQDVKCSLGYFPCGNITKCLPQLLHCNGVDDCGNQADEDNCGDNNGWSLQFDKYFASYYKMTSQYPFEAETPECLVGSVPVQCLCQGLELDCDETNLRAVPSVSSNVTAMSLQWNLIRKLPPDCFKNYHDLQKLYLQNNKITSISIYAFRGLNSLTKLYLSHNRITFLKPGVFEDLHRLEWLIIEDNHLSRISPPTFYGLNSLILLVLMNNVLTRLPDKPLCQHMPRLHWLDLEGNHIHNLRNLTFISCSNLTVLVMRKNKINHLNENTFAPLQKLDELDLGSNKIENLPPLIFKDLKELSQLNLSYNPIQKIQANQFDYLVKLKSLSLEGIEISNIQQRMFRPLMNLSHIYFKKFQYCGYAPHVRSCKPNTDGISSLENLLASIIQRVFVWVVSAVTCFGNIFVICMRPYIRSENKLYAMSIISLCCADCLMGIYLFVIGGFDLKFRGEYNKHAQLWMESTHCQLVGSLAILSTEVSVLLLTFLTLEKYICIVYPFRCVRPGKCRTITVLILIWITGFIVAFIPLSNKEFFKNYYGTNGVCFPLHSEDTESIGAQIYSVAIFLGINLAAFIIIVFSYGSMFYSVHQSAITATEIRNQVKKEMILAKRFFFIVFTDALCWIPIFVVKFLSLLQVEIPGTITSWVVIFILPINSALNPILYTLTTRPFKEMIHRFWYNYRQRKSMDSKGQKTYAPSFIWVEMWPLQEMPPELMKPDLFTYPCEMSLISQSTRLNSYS

Potency, active:
N#CCCSc1ncnc2c1oc1ccccc12 14.1 µM

Potency, inactive:
CCOC(=S)SCC(=O)Nc1nccs1
CCc1ccc(CNC(=O)c2ccc3nc(C(C)C)oc3c2)cc1
COc1ccc(OC)c(S(=O)(=O)NCc2ccccn2)c1
CCOc1ccc(C2C(=O)N(C3CCCCCC3)CC(=O)N2CCc2ccccc2)cc1OC (stereo not given)
O=C(Nc1cccc2ncccc12)c1ccccc1[N+](=O)[O-]
Cc1c(Cl)cccc1-n1c(SCC(=O)NCc2ccccc2)nc2n[nH]c(C)c2c1=N
CC1(C)Cc2c(c(-c3ccccc3)[nH]c(=O)c2C#N)CS1
Cc1cccc(CNC(=O)Cc2csc3ccccc23)c1
CN(CCO)c1nc(N)c2c(N)nc3c(c2c1C#N)CC(=O)N3Cc1cccs1
Cc1ccc(C(CC(=O)NCC2(c3ccccc3)CCCC2)c2ccccc2)c(O)c1 (stereo not given)
COc1ccc(-c2csc(N3CCN(C(=O)c4ccco4)CC3)n2)cc1
COCCn1cc(C(=O)NCc2ccco2)c2c3ccccc3n(C)c2c1=O
CC(=O)Nc1cc(C(=O)N2CCCC2)ccc1Sc1ccc(Cl)cc1
CCOC(=O)C(C)Sc1nc2c(c(=O)[nH]c(=O)n2C)n1Cc1ccc(Cl)cc1 (stereo not given)

Potency, inconclusive:
Cc1ccc(-c2nc3c(c(=O)c4ccccc4n3C)c(=O)n2-c2ccccc2)cc1 39.8 µM [activator, single point]
Cc1cccc2cc(C#N)c(SCC(=O)NNC(=O)Cc3ccccc3)nc12 39.8 µM [activator, single point]
COc1ccccc1CNC(=O)CCCn1c(=O)c2cccn2c2ccccc21 25.1 µM [activator, partial curve]
CCN1CCN(CCCNC(=O)c2ccc3c(c2)N(Cc2ccc(C)cc2)CCS3)CC1 25.1 µM [activator, partial curve]
O=S(=O)(Nc1nc2ccccc2nc1Cl)c1ccc2c(c1)OCCO2 22.4 µM [activator, partial curve]
CN(C)CCn1c2ccccc2c2nc3ccc([N+](=O)[O-])cc3cc21 15.8 µM [activator, partial curve]
CCOc1ccc(-n2nc(C(=O)NC3CCCCC3)c3ccccc3c2=O)cc1 39.8 µM [activator, single point]
CC(C)c1ccc(S(=O)(=O)c2nnn3c2nc(NCc2cccs2)c2sccc23)cc1 39.8 µM [activator, single point]
COc1cc2cc(C(=O)N(C)Cc3ccccc3)[nH]c2cc1OC 28.2 µM [activator, single point]
CCN(C(=O)CSc1nc2ccccc2nc1Cc1cccc(OC)c1)c1cccc(C)c1 20 µM [activator, partial curve]
Cc1nnc(N2CCC(C(=O)NCc3ccc(F)cc3)CC2)c2nn(-c3ccc(Cl)cc3)c(C)c12 31.6 µM [activator, partial curve]
Cc1ccc(-c2cc(C(=O)O)c3cc(Br)ccc3n2)o1 31.6 µM [activator, partial curve]
Cc1nc(Nc2ccccc2F)c2nnn(Cc3ccccc3Cl)c2n1 39.8 µM [activator, single point]
CCOC(=O)CC(=O)CSc1ccc2nnc(-c3ccccc3)n2n1 22.4 µM [activator, partial curve]
c1ccc(C2=NN(c3ccccc3)C(c3ccco3)C2)cc1 (stereo not given) 35.5 µM [activator, single point]
O=c1[nH]c(Cc2ccc(F)cc2)nc2scc(-c3ccc(F)cc3)c12 39.8 µM [activator, single point]
O=C(O)c1ccc2cccc(Cl)c2c1O 20 µM [activator, partial curve]
Cc1nnc(N2C(=O)C(O)=C(C(=O)c3ccco3)C2c2ccc(F)cc2)s1 (stereo not given) 22.4 µM [activator, partial curve]
O=S(=O)(Nc1nc2cc3c(cc2nc1Cl)OCCO3)c1ccccc1 25.1 µM [activator, partial curve]
CCc1ccc(NC(=O)Cn2ccn(-c3cccc(Cl)c3)c(=O)c2=O)cc1 28.2 µM [activator, single point]
COc1ccc(-c2ccc3c(N)c(C(=O)Nc4ccc(C)cc4C)sc3n2)cc1OC 20 µM [activator, partial curve]
O=C(O)/C=C\C(=O)Nc1cc(O)ccc1[N+](=O)[O-] 20 µM [activator, partial curve]
CC(Sc1nc(-c2ccco2)nc2c1c(=O)n(C)c(=O)n2C)C(=O)O (stereo not given) 31.6 µM [activator, partial curve]
Cc1cccc(CCNC(=O)Cn2ncc3c([nH]c4ccccc43)c2=O)c1 35.5 µM [activator, single point]
COC(=O)c1ccc(NC(=O)c2cc(S(=O)(=O)N3CCC(C)CC3)cn2C)cc1 31.6 µM [activator, single point]
Cc1cc(=O)n(Cc2cccc(Br)c2)c2c1c(C)nn2-c1ccccc1 39.8 µM [activator, single point]
COc1cc2nc(NC(=O)c3ccccc3)sc(=O)c2cc1OC 39.8 µM [activator, single point]
COc1ccc(CNCCSc2nnnn2-c2ccccc2)c(OC)c1 39.8 µM [activator, single point]
CC(C)Oc1ccc(CNC(=O)c2cnc3sc(N4CCCCC4)nn3c2=O)cc1 35.5 µM [activator, single point]
Cc1nnc2c(N3CCN(c4ccccc4)CC3)nc3ccc(C(=O)c4ccccc4)cc3n12 31.6 µM [activator, single point]
